# Test results: the supplement of paper PMC10369915
# This is one part of the list. Cut-off read from the data, not from the text of the source: active = 3.2 or more and inactive = the rest. The signal is at background level for most entries.
# Molecular target: SHP2 C-SH2 domain E139D
# Experiment: enrichment score (SH2-bound / input frequency) (ratio); bacterial display of known human phosphotyrosine sites (pTyr-Var adds point mutants) read by sequencing; higher = stronger binding; tyrosines were phosphorylated by kinases first
# Settings: peptide library: Human pTyr
# 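Note: displayed peptides selected on beads carrying the immobilized SH2 domain, with library peptides lacking any tyrosine serving as negative controls.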
row,Binder,enrichment score
1,TKSLDNNYSTPNERG [CTND1_HUMAN_904],inactive: 1.11
2,GSPGHTIYAKVDNEI [ABLM1_HUMAN_373],inactive: 3.16
3,CPSVESPYSKSGPAL [CTND2_HUMAN_516],inactive: 1.48
4,GQAPGYSYTAANKNK [CYC_HUMAN_49],inactive: 1.11
5,EDVEDPVYQAIVFEA [DAB1_HUMAN_198_YA],inactive: 1.3
6,ITSSSAIYDNPNLIK [DCP1B_HUMAN_191],inactive: 0.577
7,TGYESGEYEMLGEGL [DCTN2_HUMAN_86],inactive: 0.552
8,EKKDEAVYQAIEEGI [ACBG1_HUMAN_658],inactive: 1.03
9,GPREPPPYQEPRPRG [DDR1_HUMAN_484],inactive: 1.16
10,FGMSRNLYAGDYYRV [DDR1_HUMAN_792],inactive: 0.734
11,FGMSRNLYAGDAARV [DDR1_HUMAN_792_YA],inactive: 0.55
12,DDRGRSDYDGIGNRE [DDX3Y_HUMAN_103],inactive: 0.638
13,EDEDDEDYVPYVPLR [DDX41_HUMAN_33],inactive: 0.956
14,NDQDAMEYSSEEEEV [DDX46_HUMAN_294],inactive: 1.1
15,NGMNQQAYAAPATAA [DDX5_HUMAN_593_YA],inactive: 0.727
16,SKGLPSPYNMSSAPG [DESP_HUMAN_2817],inactive: 0.527
17,SESATELYTEPTPEP [DGKK_HUMAN_78],inactive: 0.921
18,AGIAQGVYSRYLLGN [ACD11_HUMAN_324],inactive: 0.652

# Molecular target: SHP2 C-SH2 domain wild-type
# Experiment: as above
# Settings: peptide library: Human pTyr
row,Binder,enrichment score
1,TKSLDNNYSTPNERG [CTND1_HUMAN_904],inactive: 0.833
2,GSPGHTIYAKVDNEI [ABLM1_HUMAN_373],active: 8.5
3,CPSVESPYSKSGPAL [CTND2_HUMAN_516],inactive: 1.15
4,GQAPGYSYTAANKNK [CYC_HUMAN_49],inactive: 0.946
5,EDVEDPVYQAIVFEA [DAB1_HUMAN_198_YA],inactive: 1.21
6,ITSSSAIYDNPNLIK [DCP1B_HUMAN_191],inactive: 0.634
7,TGYESGEYEMLGEGL [DCTN2_HUMAN_86],inactive: 0.568
8,EKKDEAVYQAIEEGI [ACBG1_HUMAN_658],inactive: 0.855
9,GPREPPPYQEPRPRG [DDR1_HUMAN_484],inactive: 1.09
10,FGMSRNLYAGDYYRV [DDR1_HUMAN_792],inactive: 0.7
11,FGMSRNLYAGDAARV [DDR1_HUMAN_792_YA],inactive: 0.466
12,DDRGRSDYDGIGNRE [DDX3Y_HUMAN_103],inactive: 0.507
13,EDEDDEDYVPYVPLR [DDX41_HUMAN_33],inactive: 1.02
14,NDQDAMEYSSEEEEV [DDX46_HUMAN_294],inactive: 1.2
15,NGMNQQAYAAPATAA [DDX5_HUMAN_593_YA],inactive: 0.61
16,SKGLPSPYNMSSAPG [DESP_HUMAN_2817],inactive: 0.517
17,SESATELYTEPTPEP [DGKK_HUMAN_78],inactive: 0.773
18,AGIAQGVYSRYLLGN [ACD11_HUMAN_324],inactive: 0.518

# Molecular target: SHP2 N-SH2 domain L43F
# Experiment: as above
# Settings: peptide library: Human pTyr
row,Binder,enrichment score
1,TKSLDNNYSTPNERG [CTND1_HUMAN_904],inactive: 0.995
2,GSPGHTIYAKVDNEI [ABLM1_HUMAN_373],inactive: 0.668
3,CPSVESPYSKSGPAL [CTND2_HUMAN_516],inactive: 1.17
4,GQAPGYSYTAANKNK [CYC_HUMAN_49],inactive: 1.2
5,EDVEDPVYQAIVFEA [DAB1_HUMAN_198_YA],inactive: 1.06
6,ITSSSAIYDNPNLIK [DCP1B_HUMAN_191],inactive: 0.724
7,TGYESGEYEMLGEGL [DCTN2_HUMAN_86],inactive: 0.686
8,EKKDEAVYQAIEEGI [ACBG1_HUMAN_658],inactive: 1.09
9,GPREPPPYQEPRPRG [DDR1_HUMAN_484],inactive: 0.991
10,FGMSRNLYAGDYYRV [DDR1_HUMAN_792],inactive: 0.832
11,FGMSRNLYAGDAARV [DDR1_HUMAN_792_YA],inactive: 0.468
12,DDRGRSDYDGIGNRE [DDX3Y_HUMAN_103],inactive: 0.628
13,EDEDDEDYVPYVPLR [DDX41_HUMAN_33],inactive: 0.744
14,NDQDAMEYSSEEEEV [DDX46_HUMAN_294],inactive: 1.14
15,NGMNQQAYAAPATAA [DDX5_HUMAN_593_YA],inactive: 0.786
16,SKGLPSPYNMSSAPG [DESP_HUMAN_2817],inactive: 0.541
17,SESATELYTEPTPEP [DGKK_HUMAN_78],inactive: 0.955
18,AGIAQGVYSRYLLGN [ACD11_HUMAN_324],inactive: 0.665

# Molecular target: SHP2 N-SH2 domain T42A
# Experiment: as above
# Settings: peptide library: Human pTyr
row,Binder,enrichment score
1,TKSLDNNYSTPNERG [CTND1_HUMAN_904],inactive: 0.792
2,GSPGHTIYAKVDNEI [ABLM1_HUMAN_373],inactive: 1.2
3,CPSVESPYSKSGPAL [CTND2_HUMAN_516],inactive: 1.23
4,GQAPGYSYTAANKNK [CYC_HUMAN_49],inactive: 1.02
5,EDVEDPVYQAIVFEA [DAB1_HUMAN_198_YA],inactive: 1.4
6,ITSSSAIYDNPNLIK [DCP1B_HUMAN_191],inactive: 0.61
7,TGYESGEYEMLGEGL [DCTN2_HUMAN_86],inactive: 0.524
8,EKKDEAVYQAIEEGI [ACBG1_HUMAN_658],inactive: 1
9,GPREPPPYQEPRPRG [DDR1_HUMAN_484],inactive: 1.03
10,FGMSRNLYAGDYYRV [DDR1_HUMAN_792],inactive: 0.644
11,FGMSRNLYAGDAARV [DDR1_HUMAN_792_YA],inactive: 0.564
12,DDRGRSDYDGIGNRE [DDX3Y_HUMAN_103],inactive: 0.497
13,EDEDDEDYVPYVPLR [DDX41_HUMAN_33],inactive: 0.972
14,NDQDAMEYSSEEEEV [DDX46_HUMAN_294],inactive: 0.909
15,NGMNQQAYAAPATAA [DDX5_HUMAN_593_YA],inactive: 0.732
16,SKGLPSPYNMSSAPG [DESP_HUMAN_2817],inactive: 0.657
17,SESATELYTEPTPEP [DGKK_HUMAN_78],inactive: 0.983
18,AGIAQGVYSRYLLGN [ACD11_HUMAN_324],inactive: 0.594

# Molecular target: SHP2 N-SH2 domain T52S
# Experiment: as above
# Settings: peptide library: Human pTyr
row,Binder,enrichment score
1,TKSLDNNYSTPNERG [CTND1_HUMAN_904],inactive: 1.09
2,GSPGHTIYAKVDNEI [ABLM1_HUMAN_373],inactive: 0.741
3,CPSVESPYSKSGPAL [CTND2_HUMAN_516],inactive: 1.21
4,GQAPGYSYTAANKNK [CYC_HUMAN_49],inactive: 1.1
5,EDVEDPVYQAIVFEA [DAB1_HUMAN_198_YA],inactive: 1.1
6,ITSSSAIYDNPNLIK [DCP1B_HUMAN_191],inactive: 0.627
7,TGYESGEYEMLGEGL [DCTN2_HUMAN_86],inactive: 0.492
8,EKKDEAVYQAIEEGI [ACBG1_HUMAN_658],inactive: 1.18
9,GPREPPPYQEPRPRG [DDR1_HUMAN_484],inactive: 1.46
10,FGMSRNLYAGDYYRV [DDR1_HUMAN_792],inactive: 0.837
11,FGMSRNLYAGDAARV [DDR1_HUMAN_792_YA],inactive: 0.507
12,DDRGRSDYDGIGNRE [DDX3Y_HUMAN_103],inactive: 0.633
13,EDEDDEDYVPYVPLR [DDX41_HUMAN_33],inactive: 1
14,NDQDAMEYSSEEEEV [DDX46_HUMAN_294],inactive: 1.63
15,NGMNQQAYAAPATAA [DDX5_HUMAN_593_YA],inactive: 0.741
16,SKGLPSPYNMSSAPG [DESP_HUMAN_2817],inactive: 0.502
17,SESATELYTEPTPEP [DGKK_HUMAN_78],inactive: 0.941
18,AGIAQGVYSRYLLGN [ACD11_HUMAN_324],inactive: 0.744

# Molecular target: SHP2 N-SH2 domain wild-type
# Experiment: as above
# Settings: peptide library: Human pTyr
row,Binder,enrichment score
1,TKSLDNNYSTPNERG [CTND1_HUMAN_904],inactive: 1.23
2,GSPGHTIYAKVDNEI [ABLM1_HUMAN_373],inactive: 0.752
3,CPSVESPYSKSGPAL [CTND2_HUMAN_516],inactive: 1.26
4,GQAPGYSYTAANKNK [CYC_HUMAN_49],inactive: 1.11
5,EDVEDPVYQAIVFEA [DAB1_HUMAN_198_YA],inactive: 1.43
6,ITSSSAIYDNPNLIK [DCP1B_HUMAN_191],inactive: 0.567
7,TGYESGEYEMLGEGL [DCTN2_HUMAN_86],inactive: 0.559
8,EKKDEAVYQAIEEGI [ACBG1_HUMAN_658],inactive: 1.08
9,GPREPPPYQEPRPRG [DDR1_HUMAN_484],inactive: 1.25
10,FGMSRNLYAGDYYRV [DDR1_HUMAN_792],inactive: 0.926
11,FGMSRNLYAGDAARV [DDR1_HUMAN_792_YA],inactive: 0.58
12,DDRGRSDYDGIGNRE [DDX3Y_HUMAN_103],inactive: 0.635
13,EDEDDEDYVPYVPLR [DDX41_HUMAN_33],inactive: 0.852
14,NDQDAMEYSSEEEEV [DDX46_HUMAN_294],inactive: 1.12
15,NGMNQQAYAAPATAA [DDX5_HUMAN_593_YA],inactive: 0.758
16,SKGLPSPYNMSSAPG [DESP_HUMAN_2817],inactive: 0.581
17,SESATELYTEPTPEP [DGKK_HUMAN_78],inactive: 1.1
18,AGIAQGVYSRYLLGN [ACD11_HUMAN_324],inactive: 0.74
